Measured values reported in paper PMC6919601, “Identification of Plasmodium dipeptidyl aminopeptidase allosteric inhibitors by high throughput screening” (PLoS ONE, 2019).
The campaign covered roughly 110,000 compounds. About 230 (0.21%) showed an effect of 50% or more. The list shows a part of the results.

molecular target: DPAP1 (Plasmodium falciparum, UniProt Q8IIJ9); test: primary screen, percent inhibition; read by cleavage of a fluorogenic dipeptide substrate; higher = more effect of the substance; parameters: species or system P. falciparum D10 trophozoite lysates; single well
Sequence (Q8IIJ9 whole entry, looked up): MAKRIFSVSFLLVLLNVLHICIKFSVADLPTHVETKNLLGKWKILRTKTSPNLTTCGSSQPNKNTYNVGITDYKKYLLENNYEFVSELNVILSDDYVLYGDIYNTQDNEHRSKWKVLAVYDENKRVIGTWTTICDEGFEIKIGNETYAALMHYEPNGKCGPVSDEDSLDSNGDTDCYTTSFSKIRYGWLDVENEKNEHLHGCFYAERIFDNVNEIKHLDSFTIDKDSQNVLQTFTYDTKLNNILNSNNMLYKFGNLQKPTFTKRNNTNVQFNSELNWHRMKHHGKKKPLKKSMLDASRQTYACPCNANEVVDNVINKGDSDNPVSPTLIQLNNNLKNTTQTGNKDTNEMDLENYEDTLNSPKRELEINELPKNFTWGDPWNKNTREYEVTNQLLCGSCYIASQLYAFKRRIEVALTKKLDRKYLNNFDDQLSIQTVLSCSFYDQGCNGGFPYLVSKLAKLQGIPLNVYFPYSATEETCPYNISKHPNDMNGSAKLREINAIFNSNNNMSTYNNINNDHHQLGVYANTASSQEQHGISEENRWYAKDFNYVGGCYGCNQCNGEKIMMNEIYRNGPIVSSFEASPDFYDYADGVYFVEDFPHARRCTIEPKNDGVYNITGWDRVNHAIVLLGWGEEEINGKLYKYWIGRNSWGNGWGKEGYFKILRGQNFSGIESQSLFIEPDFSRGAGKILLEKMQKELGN
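Note: 30 min substrate incubation versus DMSO and 10 µM JCP410 controls.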

SMILES	% Inhibition @ 10 uM
Cn1c(=O)c2c(nc(SCc3ccccc3)n2Cc2ccc(Cl)cc2)n(C)c1=O	3.34%
c1ccc2c(NCC3CCCO3)nc(N3CCOCC3)nc2c1 (centres unmarked)	-0.312%
Cc1ccc(/C=C/C(=O)N(Cc2ccccc2)c2ccccn2)cc1	3.62%
Cc1ccsc1CCNS(=O)(=O)c1ccc(-c2ccc(O)nn2)s1	3.76%
CCOCCCNC(=O)C(NC(=O)C1CCC(=O)N1)c1ccc(C)cc1 (centres unmarked)	-2.9%
CN1CCN(C(CC(=O)Nc2ccccc2Cl)C(=O)O)CC1 (centres unmarked)	-3.43%
COc1ccc(OC)c(CCNCc2c(C(=O)O)c(C)n(Cc3ccc(F)cc3)c2C)c1	-7.36%
CCN(CC)c1ccc(NC(=O)c2ccc(OC)cc2OC)cc1	0.331%
COc1ccc(OC)c(/C=C/C(=O)NCC2CCCO2)c1 (centres unmarked)	2.49%
CC(C)CC(NC(=O)c1cccc(NC(=O)N2CCN(CCN3CCOCC3)CC2)c1)C(=O)NCC#N (centres unmarked)	-7.36%
O=C(Nc1nccs1)c1ccc2c(c1)C(=O)N(CC1CCCO1)C2=O (centres unmarked)	19.3%
COc1cc(/C=c2\sc3nc(-c4oc5ccccc5c4C)nn3c2=O)cc(OC)c1OC	1.91%
O=S(=O)(c1ccccc1)N1CCSC1c1ccco1 (centres unmarked)	2.46%
COc1ccc(NC(=O)CN(c2ccc(C)c(Cl)c2)S(C)(=O)=O)cc1OC	-3.39%
O=C(O)CCCCCN1C(=O)c2ccc(C(=O)O)cc2C1=O	2.68%
CCOc1cccc2cc(-c3csc(NC(=O)CCC(=O)N4CCOCC4)n3)c(=O)oc12	3.7%
CCn1c(C(=O)NCCCN2CCc3ccccc3C2)cc2sc(Cl)cc21	-6.68%
CC(=O)NC(Cc1ccccc1)c1ccc2c(c1)OCCCO2 (centres unmarked)	3.6%
Cc1nc2c(-c3ccccc3)c(C)nn2c(C)c1CC(=O)NCC(C)c1ccccc1 (centres unmarked)	-6.09%
Cc1cc(C)c(S(=O)(=O)NCC(=O)N2CCc3ccccc3C2)c(C)c1	2.98%
CCn1c2ccccc2c2cc(CN3CCN(c4ccc([N+](=O)[O-])cc4)CC3)ccc21	-0.969%
COc1ccc(-c2nc(CSCC(=O)N3CCN(C4CCCCC4)CC3)c(C)o2)cc1OC	3.93%
Cc1ccc(C2C(C#N)=C(N)Oc3[nH]c(-c4ccccc4)nc32)o1 (centres unmarked)	-0.25%
COCCn1c(=O)c(C#N)cc2c(=O)n3cccc(C)c3nc21	4.3%
COc1ccc(S(=O)(=O)NCC(=O)NC2CC2)cc1OC	-2.82%

SMILES	% Inhibition @ 10 uM
Cc1noc2ncnc(N3CCC(c4ccccc4)C3)c12 (centres unmarked)	-3.08%
COC(=O)c1ccc(/C=c2\sc3nc(-c4ccc(Br)cc4)nn3c2=O)cc1	-5.2%
COc1ccc(NC(=O)CSc2nc3c(c(-c4ccccc4)c2C#N)CN(C)CC3)cc1OC	0.851%
COc1ccccc1NC(=O)CN(Cc1ccc(C)cc1)S(=O)(=O)c1ccc(C)cc1	-4.63%
CCOc1ccc(-c2cn(-c3ccc(C)c(F)c3)c(O)n2)cc1	2.4%
CN(C)CCN(Cc1ccco1)C(=O)c1oc2ccccc2c1NC(=O)COc1ccccc1	-0.528%
CCN(CC)CCCNc1cnnc2c(Cl)cccc12	-4.4%
CC(=O)Nc1ccc(NC(=O)C(C)N(c2ccccc2)S(C)(=O)=O)cc1 (centres unmarked)	-7.27%
CN(c1cccc2cccnc12)S(=O)(=O)c1ccccc1	-7.93%
COc1ccc(C(=O)c2cnc3ccc(OC)cc3c2N2CCCC2)cc1	0.851%
O=C(COc1ccccc1)Nc1c(-c2ccc(F)cc2)nc2ccccn12	-2.74%
Cc1ccc(-c2c(C#N)c(N)nc3c2CCCCCC3)cc1	-4.32%
CC(C)n1c(CCNC(=O)c2ccccc2)nc2ccccc21	-0.58%
CN(C)c1nc(Oc2ccc(O)nn2)nc(N2CCOCC2)n1	-1.11%
CCOc1cc(C2NC(C(=O)O)CS2)ccc1OCc1cccc(F)c1 (centres unmarked)	-8.55%
O=C(CSCc1ccc(Cl)cc1)NC1CC2CCC1C2 (centres unmarked)	-2.24%
OCC1CCCN1C1CC2CCC1C2 (centres unmarked)	3.24%
COc1ccc(C(=O)N(Cc2ccc(N(C)C)cc2)C2CCS(=O)(=O)C2)cc1 (centres unmarked)	3.74%
COc1ccc(N2C(=O)C(Cl)=C(Nc3ccccc3)C2=O)cc1	-3.19%
COc1ccc(C2(C#N)CCOCC2)cc1OC	0.392%
N#C/C(=C\c1c[nH]nc1-c1ccc(F)cc1)c1nn(-c2ccccc2)c(N)c1C#N	-3.04%
Cc1ccc(S(=O)(=O)N(CC(=O)NC2CCCC2)c2cccc(C)c2)cc1	-1.61%
COc1ccc(C2C(C#N)=C(N)OC3=C2C(=O)CC(c2ccccc2)C3)cc1Br (centres unmarked)	-1.93%
Cc1cccc(C(=O)O/N=C(\c2ccccc2)c2cccnc2)c1	-2.87%
OCCSc1ccc(Cc2ccc(SCCO)cc2)cc1	-1.77%
